Measured values reported in the RNAGym collection of RNA variant scans (doi:10.7554/elife.90254).
Read counts are not given, so values of variants with three or more changes are uncertain.

B1: OR4K15 (parent)
chain: GUUAACGGUCAUAGGCCAUGGAAACUAGGAGCACCAUUUCGCUGCCAGUGAAGAAAUGAACAAAGAAAAUCUGGGCCAGGCAGGCAUCAAAAGAAAUAGUCUUGCGCUCAACCAGAAAGUCUGUAAUCAUUUUAAGGGUA

Variants of: B1
Experiment: self-cleavage, relative activity (ratio to wild type); higher = more cleavage; in vitro, sequencing; the parent is a self-cleaving ribozyme

Variant | self-cleavage
GUUAACGGUCAUAGGCCAUGGAAACUAGGAGCGCCAUUUCGCUGCCAGUGAAGAAAUGAACAGAGAAAAUCUGGGCCAGGCAGGCAUCAUAAGAAAUAGUCUUGCGCUCAACCAGAAAGUCUGUAAUCAUUUUAAGGGUA [A33G A63G A90U] | 1.06
GUUAACGGUCAUAGGCCAUGGAAACUAGGAGCACCACUACGCUGCCAGUGAAGAAGUGAACAAAGAAAAUCUGGGCCAGGCAGGCAUCAAAAGAAAUAGUCUUGCGCUCAACCAGUAAGUCUGUAAUCAUUUUAAGGGUA [U37C U39A A56G A116U] | 0.51
GUUAACGGUCACAGGCCAUGGAAACUAGGAGCACCAUUUCGCUGCCAGUGAAGAAGUGAACAAAGAAAAUCUGGGCCAGGCAGGCAUCAAAAGAAAUAGCCUCGCGCUCAACCAGGAAGUCUGUAAUCAUUUUGAGGGUA [U12C A56G U100C U103C A116G A134G] | 1.23
GUUAACGGUCCUAGGCCAUGGAAACUAGGAGCACCAUUUCGCUGCCAGUGAAGAAAUGAACAAAGAAAAUCUGGGCCAGGCAGGCAUCAAAAGAAGUAGUCUUGCGCUCAACCAGAAAGUCUGUAAUCAUUUUAAGGGUG [A11C A96G A140G] | 2.65
GUUAACGGUCAUAGGCCAUGGAAACUAGGAGCACUAUUUCGCUGCCAGUGAAGAAAUGAACAGAGAAAAUCUGGGCCAGGCAGGCAUCAAAAGAAAUAGUCUUGCGCUCAACCAGGAAGUCUGUAAUCAUUUUAAGGGUA [C35U A63G A116G] | 0.36
GUUAACGGUCAUAGGCCAUGGAUACUAGGAGCACCAUUUCGCUGCCAGUGUAGAAAUGAACAAAGAAAAUCUGGGCCAGGCAGGCAUCAAAAGAAAUAGUCUUGCGCUCAACCAGAAAGUCUGUAAUCAUUUCAAGGGUA [A23U A51U U133C] | 1.71
GUUGACGGUCAUAGGCCAUGGAAACUAGGAGCACCAUUUCGCUGCCAGUGAAGAAAUGAACAAAGAAAAUCUGGGCCAGGCAGGCACCAAAAGAAAUAGUCUCGCGCUCAGCCAGAAAGUCUGUAAUCAUUCUAAGGGUA [A4G U87C U103C A111G U132C] | 0.02
AUUAGCGGUCAUAGGCCAUGGAAACUAGGAGCACCAUUUCGCUGCCAGUGAAGAAAUGAACAAAGAGAAUCUGGGCCAGGCAGGCAUCAAAAGAAAUAGUCUUGCGCUCAACCAGUAAGUCUGUAAUCAUUUUAAGGGUA [G1A A5G A67G A116U] | 0.39
GUUAACGGUCGUAGGCCAUGGAAACUAGGAGCACCAUUUCGCUGCCAGUGAAGUAAUGAACAAAGAAAAUCUGGGCCAGGCAGGCAUCAAAAGGAAUAGUCUUGCGCUCAACCAGAAGGUCUGUAAUCAUUUUAAGGGUA [A11G A54U A94G A118G] | 1.07
GUUAACGGUCAUAGGCCGUGGAAACUAGGAGCACCAUUUCGCUGCCAGUGAAGAAAUGAACAAAGAAAAUCUGGGCCUGGCAGGCAUCAAAAGAAAUAGUCUUGCGCUCAACCAGAAAGUCUGUAAUCAUUUUAAGAGUA [A18G A78U G137A] | 0.29
GUUAACGGUCAUAGGCCAUGGAAACUAGGAGCACCACUUCGCUGCCAGUGAAGAAAUGAACGAAGAAAAUCUGAGCCAUGCAGGCAUCAAAGGAAAUAGUCUUGCGCUCAACCAGAAAGUCUGUAAUCAUUUUAAGGGUA [U37C A62G G74A G79U A92G] | 0.16
GUUAACGGUCAUAGGCCAUGGAAACUAGGAGCACCAUUUCGCUGCCAGUGAAGAAAUGAACAAAGAAAAUCUGGGCCAGGCAGGCACCAAAAGAAAUAGUCUUGCGCUCAACCAGAAAGUCCGUAAUCAUUUUAAGGGUG [U87C U122C A140G] | 0.88
GUUAACGGUCAUAGGCCAUGGAAACUAGGAGCACCAUUUCGCUGCCAGCGAAGAAAUGAACAAAGAAAAUCUGGGCCAGGCAGGCAUCAAAAGAAAUAGUCUUGCGCUCAACCAGAGAGUCUGUAAUCAUUCUAAGGGUA [U49C A117G U132C] | 2.27
GUUAACGGUCAUAGGCCAUGGUAACUAGGAGCACCAUUUCGCUGCCAGUGAAGAAAUGAACAAAGAAAAUCUGAGCCAGGCAGGCAUCAAAAGAAGUAGUCCUGCGGUCAACCAGAAAGUCUGUAAACGUUUUAAGGGUA [A22U G74A A96G U102C C107G U127A A129G] | 0
GUUAACGGUCAUAGGCCUUGGAAACUAGGAGCACCAUUUCGCUGCCAGUGAAGAGAUGAACAAAGAAAAUCUGGGCCAGGCAGGCAUCAAAAGAAAUAGUCUUGCGCUCAACCAGAAAGUCAGUAAUCAUUUUAAGGGUA [A18U A55G U122A] | 1.03
GUUAACGGUCAUAGGCCAUGGAAACUAGGAGCACAAUUUCGCUGCCAGUGAAGGAAUGAACAAAGAAAAUCUGGGCCUGGCAGGCAUCAAAAGAAAUAGUCUUGCGCUCAACCAGAAAGUCCGUAAUCAUUUUAAGGGUA [C35A A54G A78U U122C] | 0.12
GUUAACGGUCAUAGGCCAUGGAAGCUAGGUGCACCAUUACGCUGCCAGUGAAGAAAUGAACAAAGAAAAUCUGGGCCAGGCAGGCAUCAAAAGAAAUAGUCUUGCGCUCAACCAGGAAGUCAGUAAUCAUUUUAAGGGUA [A24G A30U U39A A116G U122A] | 0.34
GUUAACGGUCAUAGGCCAUGGAAACUAGGAGCACCAUUUCGCUGCCAGUAAAGGAAUGAACAAAGAAAAUCUGGGCCAGGCAGGCACCAAAAGAAAUAGUCUUGCGCUCAACCAGAAAGUCUGUAAUCAUUUUAAGGGUA [G50A A54G U87C] | 1.23
GUUAACGGUCAUAGGCCAUGGAAACUAGGAGCACCACUUCGCUGCCAGUGAAGAAAUGAACAAAGAAAACCUGGGCCAGGCAGGCACCAAAAGAAAUAGUCAUGCGCUCAACCAGAAAGUCUGUAAUCAUUUUAAGGGUA [U37C U70C U87C U102A] | 0.42
GUUAACGGCCAUAGGCCAUGGAAACUAGGAGCGCCAUUUCGCUGCCAGUGAAGAAAUGAACAAAGAAAAUCUGGGCCAGGCGGGCAUCAAAAGAAAUAGUCUUGCGCUCAACCAGAAAGUCUGUAAUCAUUUUAAGGGUA [U9C A33G A82G] | 0.32
GUUAACGGUCAUAGGCCAUGGAAGCUAGGAGCACCAUUUCGCUGCCAGUGAAGAAAUGUACAAAGAAAAUCUGGGCCAGGCAGGCAUCAAGAGAAAUAGACUUGCGCUCAACCAGAAAGUCUGUAAUCAUUUUAAGGGUA [A24G A59U A91G U100A] | 0.53

Variant | self-cleavage
GUUAACGGUCAUAGGCCAUGGAAACUAGGAGCACCAUUUCGCUGCCAGUGAAGAAAUGAACAAAGAGAAUCUGGGCCAGGCAGGCAUCAAAAGGAAUAGUCUCGCGCUCAACCAGAAAGUCUGUAAUCAUUUUAAGGGUA [A67G A94G U103C] | 1.37
GUUAACGGUCAUAGGCCAUGGAAACUAGGAGCACCAUUUCGCUGCCAGUGAAGAAAUGAACGGAGAAAAUCUGGGUCGGGCAGGCAUCAAAAGAAAUAGUCUUGCGCUCAACCAGAAAGUCUGUAAUCAUUUUAAGGGUA [A62G A63G C76U A78G] | 0.31
GUUAACGGUAAUAGGCCAUGGAAACUAGGAGCACCAUUUCGCUGCCGGUGAAGAAAUGAACAAAGAAAAUCUGGGCCAGGCAGGCAUCAAAAGAAAUAGUCUUGCGCUCAACCAGAAAGUCUGUAAUCAUUUUAGGGGUA [C10A A47G A135G] | 1.13
GUUAACGGUCAUAGGCCAUGGAAACUAGGAGCACCAUUUCGCUGCCAGUGAAGAAAUGAACAAAGCAAAUCUGAGCCAGGCAGGCAUCAAAAGAAAUAGUCUUGCGCUCAACCAGAAAGUCCGUAAUCAUUUUAAGGGUA [A66C G74A U122C] | 0.14
GCUAGCGGUCAUAGGCCAUGGAAACUAGGAGCACCAUUUCGCUGCCAGUGAAGAAAUGAACAAAGAAAAUCUGGGCCAGGCAGGCAUCAAAGGAAAUAGUCUUGCGCUCAACCAGAUAGUCUGUAAUCAUUUUAAGGGUA [U2C A5G A92G A117U] | 0.44
GUUAACGGUCAUAGGCCAUGGAAACUAGGAGCACCAUUUCGCGGCCAGCGAAGAAAUGAACAAAGAAAAUCUGGGCCAGGCAGGCACCAAAGGAAAUAGUCUUGCGCUCAACCAGAAAGUCUGUAAUCAUCUUAUGGGUA [U43G U49C U87C A92G U131C A135U] | 1.02
GUUAACGGUCAUAGGCCAUGGAAACUAGGAGCACCAUUUCGCUGCCAGUGAAGGGAUGAACAAAGAAAAUCUGGGCCAGGCAGGCAUCAAAAGAAAUAGUCUUGCGCUCAACCAGAAAGCCUGUAAUCAUUUUAAGGGUA [A54G A55G U120C] | 1.38
GUUAACGGUCAUAGGCCAUGGAAACUAGGGGCACCAUUUCGCUGCCAGUGAAGAAAUGAACAAAGAAAAUCUGGGCCAGGCAGGCAUCAAAAGGAAUAGUCUUGCGGUCAACCAGAAAGUCUGUAAUCAUUUUAAGGGUA [A30G A94G C107G] | 0.04
GCCAACGGUCAUAGGCCACGGAAACUAGGAGCACCAUUUCGCUGCCAGUGAAGAAAUGAACUAAGAAGAUCUGGGCCAGGCAGGCAUCAAAAGAAAUAGUCUUGCGCUCAACCAGAAAGUCUGUAAUCAUUUUAAGGGUA [U2C U3C U19C A62U A68G] | 0.55
GUUAACGGUCAUAGGCCAUGGAAGCUAGGAGCACCAUUUCGCUGCCAGUGAAGAAAUGAACAAAGAAAGUCUGGGCCAGGCAGGCAUCAAAAGAAAUAGUCUUGCGCUCAACCAGAAAGUCUGUAAUCAUCUUAAGGGUA [A24G A69G U131C] | 0.98
GUUAACGGUCAUAGGCCAUGGAAACUAGGUGCACCAUUUCGCUGCCAGUGAAGAAAUGAACAGAGAAAAUCUGGGCCAGGCAGGCUUCAAAAGAAAUAGUCUUGCGCUCAACCAGAAAGUCUGUAAUCAUUUUAAGGGUA [A30U A63G A86U] | 2.07
GUUAACGGUCAUAGGCCAUGGAAACUAGGAGCACCAUUUCGCCGCCAGUGAAGAAAUGAACAAAGAAAAUCUGGGCCAGGCAGGCAUCAAAAGAAAUAGUCUUGCGCUCAACCAGAGAGCCUGUAAUCAUUUUAAGGGUA [U43C A117G U120C] | 0.52
GCUAACGGUCAUGGGCCAUGGAAACUAGGAGCACCAUUUCGCUGCCAGUGAAGGAAUGAACAAAGAAAAUCUGGGCCAGGCAGGCAUCAAAAGAAAUAGUCUUGCGCUCAACCAGAAAGCCUGUAAUCAUUUUAAGGGCA [U2C A13G A54G U120C U139C] | 0.05
GUUAACGGCCAUAGGCCAUGGAAUCUAGGAGCACCAUUCCGCUGCCAGUGAAGAAAUGAACAAAGAAAAUCUGGGCCAGGCAGGCAUCAAAAGGAAUAGUCUUGCGCUCGACCAGAAAGUCUGUAAUCAUUUUAAGGGUA [U9C A24U U39C A94G A110G] | 0.15
GUUAACGGUCAUAGGCCAUGGAAACUAGGAGCACCAUUUCGCUGCCAGUGAAGAAAUGAACAAGGAAAAUCUGGGCCAGGCAGGCAUCAAAAGAAAUAGUCUUGCGCCCAACCAGAAAGUCUGUAAUCAUUUUAAGGGCA [A64G U108C U139C] | 0.01
GUUAACGGUCAUAGGCCAUGGAAACUAGGAGCACCAUUUCGCUGCCAGUGAAGAAAUGAACAAAGAAAAUCUGGGCCUGGCGGGCAUCAAAAGAGGUAGCCUUGCGCUCAACCAGGAAGUCUGUAAUCAUUUUAAGGGUA [A78U A82G A95G A96G U100C A116G] | 0.21
GUUAACGGUCAUAGGCCAUGGGAACUAGGAGCACCAUUUCGCUGCCAGUGAAGAAAUGAACGAAGAAAAUCUGGGCCAGGCUGGCAUCAAAAGAAAUAGUCUUGCGCUCAACCAGAAAGUCUGUAACCAUUCUAAGGGUA [A22G A62G A82U U127C U132C] | 0.06
GUUAACGGUCAUAGGCCAUGGAAACUAGGAGCACCAUUUCGCUGCCAGUGAUGAAAUGAACAAGGAAAAUCUGGGCCAGGCAGGCAUCAAAAGAAAUAGUCUUGCGCUCAACCAGAAAGUCUGUAAUCAUUCUAAGGGUA [A52U A64G U132C] | 0.34
UUUAACGGUCAUAGGCCAUGGAAACUAGGAGCACCAUUUCGCUGCCAGUGAAGAAAUGGACAAAGAAAAUCUGGGCCAGGCAGGCAUCAAAAGAAAUAGCCUUGCGCUCAACCAGAAAGUCUGUAAUCAUUUUAAGGGUA [G1U A59G U100C] | 1.02
GUUAACGGUCAUAGGCCAUGGAGACUAGGAGCACCAUUUCGCUGCCAGUGAAGAAAUGAGCAAAGAAAAACUGGGCCAGGCAGGCAUCAAAAGAAAUAGUCUUGCGCUCAACCAGAAAGUCUGUAAUCAUUUUAAGGGUA [A23G A60G U70A] | 1.22
